This is an account of results in ChEMBL document CHEMBL4888484, “Replenishing the malaria drug discovery pipeline: Screening and hit evaluation of the MMV Hit Generation Library 1 (HGL1) against asexual blood stage Plasmodium falciparum ,using a nano luciferase reporter read-out” (2022).

SMILES strings stand for the structures. The whole screen tested about 150,000 compounds, of which about 540 (0.36%) showed an effect of 50% or more. The list shows a part of the results.

This test deals with Plasmodium falciparum. Briefly: Primary screen in NF54 nanoGlo assay, in single point, at 2uM, 72h; a lower Z score goes with more inhibition. Type of test: functional, Erythrocyte. The note with it: timepoint 72 hour.
Broadly, the % Inhibition is the change of the read-out against control, counted positive when it falls. Regarding `CC(C)N1C(=O)N[C@@H]2CN(c3ccc(S(C)(=O)=O)cc3)CC[C@@H]21`, the “% Inhibition” value is on record as 31% and the Z score is reported as -3.55.

Take `Cc1ccc(NC(=O)C[C@@H]2C=CCC2)nc1`: the “% Inhibition” value is reported as -14% and the Z score is 1.28.

With `COc1ncncc1NCc1cnn(C(C)C)c1`, the “% Inhibition” value was -3% and the Z score is 0.63.

Consider `Cn1cc(-c2ccc(Cl)cc2)c2ncn(CC(=O)Nc3ccccc3Cl)c(=O)c21`, for which the “% Inhibition” value was -18% and the Z score is given as 2.61.

With `CN1CCN(S(N)(=O)=O)C[C@]12CCNC(=O)CC2`, the “% Inhibition” value was -1% and the Z score is 0.13.

Turning to `CCN1CCO[C@H](C(=O)Nc2nccn2C2CC2)C1`, the “% Inhibition” value is -5% and the Z score is 1.03.

As for `CCOc1ccc(CNC(=O)C(C)C)cc1Cl`, the “% Inhibition” value is -7% and the Z score is given as 1.3.

As to `CC(NC1CCC(=O)N(C)C1)c1nc(C(F)(F)F)cs1` (centres undefined), the “% Inhibition” value came out at 0% and the Z score is reported as -0.05.

For `COC(C)C(=O)NC(C)CC(=O)c1ccco1` (centres undefined), the “% Inhibition” value was -7% and the Z score is recorded as 1.07.

In the case of `Cn1c(=O)[nH]c(=O)c2c1nc(N1CCCCCC1)n2CCCOc1ccccc1`, the “% Inhibition” value is recorded as -7% and the Z score came out at 1.03.

For `Cc1ccc(NC(=O)C2CCN(S(=O)(=O)c3c(C)[nH]c(C)c3C(=O)N3CCCC3)CC2)c(Cl)c1`, the “% Inhibition” value is given as -12% and the Z score turned out to be 1.18.

As to `CC(=O)N[C@H]1C[C@@H](c2cc(N3CCN(c4cnccn4)CC3)ncn2)C1`, the “% Inhibition” value is listed as -11% and the Z score came to 1.29.

Consider `COc1ccc(Cl)cc1C(c1c(C)n(C)c2ccccc12)c1c(C)n(C)c2ccccc12`, for which the “% Inhibition” value is on record as -7% and the Z score is 0.92.

As for `O=C(Nc1ccc2c(c1)C(O)=Nc1cccnc1O2)c1ccco1`, the “% Inhibition” value stood at 8% and the Z score was -0.89.

On to `O=C(NC1CCN(Cc2ccccc2)CC1)c1cn(C[C@H]2CCCO2)nn1`, for which the “% Inhibition” value was -16% and the Z score stood at 2.13.

Turning to `O=C1CCC2(CCN(C(=O)c3ccncc3)CC2)CN1CCc1ccncc1`, the “% Inhibition” value is listed as -10% and the Z score is 1.1.

As to `CCCN(Cc1cnn(C)c1)C(=O)NC1CCC(C(=O)NC)CC1` (centres undefined), the “% Inhibition” value is listed as 6% and the Z score is reported as -0.6.

For `Cn1ncc(Nc2ncncc2Br)c1C(F)F`, the “% Inhibition” value is -5% and the Z score is 0.81.

Take `Cc1ccc(C(C)(C)NCc2cn(C)nn2)cn1`: the “% Inhibition” value was -9% and the Z score turned out to be 1.53.

Turning to `Cc1c(C(C)C)c(=O)n(-c2ccc(S(=O)(=O)N3CCN(c4nc5ccccc5nc4-c4ccccc4)CC3)cc2)n1C`, the “% Inhibition” value turned out to be 34% and the Z score is listed as -4.54.

For the compound `C[C@@H](c1cccc(Cl)c1)N(C)CC(N)=O`, the “% Inhibition” value is -4% and the Z score is on record as 0.79.

With `CCN(CC)c1onc(-c2ccccc2)c1CN(CC(O)CN1CCOCC1)CC1CCCO1` (centres undefined), the “% Inhibition” value is -11% and the Z score stood at 1.07.

In the case of `COCCNC(=O)NC(=O)CN1CCCC[C@@H]1C`, the “% Inhibition” value is on record as -4% and the Z score amounted to 0.53.

Regarding `CC(C)c1ccc2c(c1)CC[C@H]1[C@](C)(CNC(=O)Cn3nc(-c4ccccc4F)ccc3=O)CCC[C@]21C`, the “% Inhibition” value stood at 6% and the Z score is recorded as -0.72.

In the case of `O=C(COC1CCCCC1)Nc1nc(-c2ccc3c(c2)OCO3)cs1`, the “% Inhibition” value is reported as -13% and the Z score turned out to be 2.6.

In the case of `Cc1cc(-c2ccc(C(=O)N(C)CC3(CO)CCC3)cc2)cc(C)c1O`, the “% Inhibition” value was -9% and the Z score stood at 1.2.

Consider `CC1(C)C(=O)NC(=O)N1C(=O)c1ccccc1`, for which the “% Inhibition” value stood at 7% and the Z score was -1.06.

In the case of `CC(=O)c1c(C)nn([C@@H](C)Cc2nc(-c3cccnn3)no2)c1C`, the “% Inhibition” value is reported as -11% and the Z score is reported as 1.53.

For `Cc1nc(N2CCC(NCCc3cccnc3)CC2)c2ccsc2n1`, the “% Inhibition” value is on record as -13% and the Z score is given as 1.41.

As to `OCc1ccc(Oc2cc(F)c(CN3CCCC3)c(Cl)c2)cc1`, the “% Inhibition” value is listed as 6% and the Z score is given as -1.21.

For `CCN(CC)S(=O)(=O)c1ccccc1N`, the “% Inhibition” value was 5% and the Z score was -0.73.

`CCOC(=O)c1nc(NCC2CCN(Cc3ccccc3F)CC2)c2ccccc2n1`: the “% Inhibition” value was -6% and the Z score worked out at 1.09.

With `CCOc1cc(C(=O)N2CCn3cccc3[C@@H]2CC)n[nH]1`, the “% Inhibition” value is listed as -3% and the Z score came out at 0.45.

For `CCN=C(NCc1noc(C)n1)NCc1ccccc1OC(C)(C)C`, the “% Inhibition” value is -6% and the Z score was found to be 0.55.

Take `[O-][n+]1cc(O)c(CN2CCOCC2)c2ccccc21`: the “% Inhibition” value is given as -2% and the Z score was 0.32.

With `C[C@H](NCc1ccc(Cn2ccnc2)cc1)c1cc(Cl)cc(Cl)c1`, the “% Inhibition” value was -4% and the Z score worked out at 0.66.

As to `CCOc1ccnc(NCC[C@H]2CCCN(C)C2)n1`, the “% Inhibition” value is -1% and the Z score is recorded as 0.12.

With `CCc1cnc(CN(C)c2nc(C)cc(C)c2C#N)s1`, the “% Inhibition” value is -8% and the Z score turned out to be 1.66.

Turning to `O=C(O)c1ccc(C(=O)N(CCC(F)(F)F)C2CCC2)cn1`, the “% Inhibition” value is on record as -3% and the Z score came to 0.32.

For `Cc1ccc(-c2c3c(=O)n(C)c(=O)n(C)c3c3n2-c2ccccc2O[C@@H]3c2ccccc2O)cc1`, the “% Inhibition” value stood at 6% and the Z score is on record as -0.85.

With `CC(=O)c1cc(C(=O)N2CCC(C)CC2c2ccco2)ccc1C` (centres undefined), the “% Inhibition” value is -26% and the Z score is 2.73.

On to `O=C(O)c1ccccc1-c1cc(O)cc(CC[C@H]2CCCCN2)c1`, for which the “% Inhibition” value is listed as -15% and the Z score amounted to 2.8.
